# Article PMC4336329 (PLoS ONE, 2015)
# Among all 310,000 compounds or so, about 14,000 (4.5%) showed an effect of 50% or more. The effect is printed as a negative number. The list shows a part of the results.
# Molecular target: human ether-à-go-go-related gene (hERG) potassium channel (human, UniProt Q12809)
# Test: primary screen, population patch clamp on CHO cells stably expressing hERG
# 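Note: peak tail current of the secondary pulse compared with the same well before compound.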
# Sequence of human ether-à-go-go-related gene (hERG) potassium channel (Q12809 whole entry, looked up): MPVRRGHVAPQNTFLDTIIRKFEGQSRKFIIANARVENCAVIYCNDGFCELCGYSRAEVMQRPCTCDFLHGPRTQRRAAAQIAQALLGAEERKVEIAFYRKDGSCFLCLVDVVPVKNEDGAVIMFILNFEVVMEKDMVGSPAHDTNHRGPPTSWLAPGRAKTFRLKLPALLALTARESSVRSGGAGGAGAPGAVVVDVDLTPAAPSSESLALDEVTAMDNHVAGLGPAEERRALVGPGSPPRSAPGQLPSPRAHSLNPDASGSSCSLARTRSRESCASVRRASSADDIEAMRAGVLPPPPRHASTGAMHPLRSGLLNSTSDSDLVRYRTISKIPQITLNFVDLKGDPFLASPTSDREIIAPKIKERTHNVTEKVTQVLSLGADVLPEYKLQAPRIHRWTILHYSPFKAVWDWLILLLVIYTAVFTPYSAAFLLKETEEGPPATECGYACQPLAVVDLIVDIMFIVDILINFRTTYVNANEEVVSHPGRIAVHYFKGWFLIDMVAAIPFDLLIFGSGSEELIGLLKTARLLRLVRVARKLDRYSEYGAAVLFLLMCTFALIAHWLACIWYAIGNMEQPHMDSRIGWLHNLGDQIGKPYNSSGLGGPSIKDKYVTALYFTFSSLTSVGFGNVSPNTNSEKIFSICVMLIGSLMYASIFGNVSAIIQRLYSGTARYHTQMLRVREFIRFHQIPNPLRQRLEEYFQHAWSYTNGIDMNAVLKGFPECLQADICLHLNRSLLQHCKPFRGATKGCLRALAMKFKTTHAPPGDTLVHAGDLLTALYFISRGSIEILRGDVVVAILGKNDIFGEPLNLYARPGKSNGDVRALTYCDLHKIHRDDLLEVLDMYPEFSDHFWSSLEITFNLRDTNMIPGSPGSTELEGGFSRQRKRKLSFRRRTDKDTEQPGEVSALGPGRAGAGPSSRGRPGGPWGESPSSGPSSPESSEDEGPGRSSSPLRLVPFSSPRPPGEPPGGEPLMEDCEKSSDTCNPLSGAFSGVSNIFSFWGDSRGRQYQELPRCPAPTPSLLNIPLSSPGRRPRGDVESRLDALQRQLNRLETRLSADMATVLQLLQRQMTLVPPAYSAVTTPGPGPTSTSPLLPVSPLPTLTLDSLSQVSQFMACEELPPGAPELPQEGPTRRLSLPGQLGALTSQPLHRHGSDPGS
row,SMILES,"hERG current change (%, negative = inhibition) at 10uM [%]"
1,CCCCCCNc1c(C(=O)OCC)c(=O)[nH]c2ccccc12,-12.6
2,Nc1nc(SCC(=O)NCc2ccccc2)n[nH]1,14.4
3,CCC(C)NC(=O)c1cccc(OCc2c(C)noc2C)c1 (centres unmarked),10
4,Cc1occc1C(=O)/C(C#N)=C/c1ccc(O)c(Br)c1,6.16
5,CCOC(=O)c1cc(S(=O)(=O)NC2CCCCC2)cn1C,6.88
6,Cc1ccc(-c2ccc(CCC(=O)O)n2CC(=O)O)cc1,10.6
7,O=C(CCc1ccccc1)NC(NC(=S)Nc1cccc(Cl)c1)C(Cl)(Cl)Cl (centres unmarked),14.6
8,COc1ccccc1N1CCN(CC(=O)Nc2cc(F)ccc2C)CC1,-36
9,COc1ccc(C(=O)Cn2c(C(=O)/C=C/c3ccccc3)nc3ccccc32)cc1,-16.4
10,COc1ccc(S(=O)(=O)NCCSC(C)(C)C)cc1,0.49
11,Cc1c(C(=O)N(C)c2cccc(Cl)c2)cnn1-c1ccccc1,-9
12,O=C(Nc1ccc(C2CC2(Cl)Cl)cc1)c1cccc([N+](=O)[O-])c1 (centres unmarked),8.11
13,COc1ccc2c3c(c(=O)oc2c1OCC(N)=O)CCCC3,-5.39
14,CCOC(=O)C(C)Oc1cccc2c(=O)n(CC(=O)N3CCN(C(=O)OCC)CC3)ccc12 (centres unmarked),-0.563
15,COc1cccc(CN(C)C(=O)CSCC(=O)Nc2ccc(C)cc2)c1OC,-12.9
16,Cc1nn(Cc2ccc(F)cc2)c(Cl)c1/C=N/NC(=O)c1ccccc1,-16.9
17,COc1cccc(NC(=O)N2C3CCCC2CC(NC(C)=O)C3)c1 (centres unmarked),11.6
18,COc1ccc(NC(=O)CN(C)C(=O)CCC2CCCC2)cc1,5.49
19,CN1CCc2c(c3c(n2C)CCN(C)C3c2ccc(F)cc2)C1c1ccc(F)cc1.Cl (centres unmarked),-10.3
20,CCOC(=O)N/N=C/c1cn(CCCOc2ccc(C)cc2)c2ccccc12,9.47
21,Cc1nc2ccccc2cc1O,4.22
22,COc1ccc(C(=O)N2CCN(CCNC(=O)C(=O)Nc3ccc(Br)cc3)CC2)cc1,-80
23,CCc1nnc(NC(=O)CSc2ncc(-c3ccccc3)n2CC)s1,-17.9
24,CN=c1scc(-c2ccccc2Br)n1/N=C/c1ccc[nH]1,6.95
25,CN(C)c1nc(NC(C)(C)C)nc(NC(C)(C)C)n1,17
26,O=C(COC(=O)c1ccc2ccccc2n1)c1ccccc1,11.7
